Test results published in article PMC4336329 (PLoS ONE, 2015).
The campaign covered roughly 310,000 compounds. About 2,200 (0.71%) showed an effect of 50% or more. Effects have a minus sign here. The list shows a part of the results.

The molecules below were run against human ether-à-go-go-related gene (hERG) potassium channel (human, UniProt Q12809) (assay: primary screen, population patch clamp on CHO cells stably expressing hERG).
Sequence of human ether-à-go-go-related gene (hERG) potassium channel (Q12809 whole entry, looked up): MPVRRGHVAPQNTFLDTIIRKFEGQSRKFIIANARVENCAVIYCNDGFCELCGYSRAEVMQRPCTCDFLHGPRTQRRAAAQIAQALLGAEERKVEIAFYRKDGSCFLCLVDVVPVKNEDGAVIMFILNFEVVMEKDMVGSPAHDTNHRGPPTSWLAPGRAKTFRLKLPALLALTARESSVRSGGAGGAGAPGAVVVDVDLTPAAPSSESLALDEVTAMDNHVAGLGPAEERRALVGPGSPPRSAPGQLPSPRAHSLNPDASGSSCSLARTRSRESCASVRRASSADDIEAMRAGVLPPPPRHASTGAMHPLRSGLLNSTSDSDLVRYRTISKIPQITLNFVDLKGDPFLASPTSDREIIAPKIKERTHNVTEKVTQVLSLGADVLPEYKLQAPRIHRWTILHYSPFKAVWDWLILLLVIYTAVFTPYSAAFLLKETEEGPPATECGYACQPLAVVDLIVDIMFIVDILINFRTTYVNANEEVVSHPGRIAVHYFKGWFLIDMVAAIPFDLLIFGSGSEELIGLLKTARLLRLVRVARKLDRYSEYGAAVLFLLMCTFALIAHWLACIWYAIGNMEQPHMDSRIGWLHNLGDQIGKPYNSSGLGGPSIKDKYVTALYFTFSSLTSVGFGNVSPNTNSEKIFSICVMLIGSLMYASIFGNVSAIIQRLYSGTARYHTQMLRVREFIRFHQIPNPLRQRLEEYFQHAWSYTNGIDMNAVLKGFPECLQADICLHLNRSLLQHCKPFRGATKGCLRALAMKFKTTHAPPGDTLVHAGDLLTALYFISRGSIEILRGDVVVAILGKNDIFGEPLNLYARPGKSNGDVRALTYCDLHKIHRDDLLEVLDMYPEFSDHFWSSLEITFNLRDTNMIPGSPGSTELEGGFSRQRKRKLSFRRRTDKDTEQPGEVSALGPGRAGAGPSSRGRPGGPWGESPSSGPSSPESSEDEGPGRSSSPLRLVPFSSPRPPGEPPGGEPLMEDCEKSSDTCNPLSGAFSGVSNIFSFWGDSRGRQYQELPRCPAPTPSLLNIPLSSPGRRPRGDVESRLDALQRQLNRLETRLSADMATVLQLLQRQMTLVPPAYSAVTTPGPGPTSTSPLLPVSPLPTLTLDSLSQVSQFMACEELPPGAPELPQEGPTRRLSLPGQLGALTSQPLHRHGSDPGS

| Compound | hERG current change (%, negative = inhibition) at 1uM |
| --- | --- |
| Cc1ccc(S(=O)(=O)NCC(=O)NCC(=O)N(C)Cc2ccc3ccccc3c2)cc1C | 11.1% |
| O=C(Nc1cccc2ccccc12)N1CCN(c2ccccc2)CC1 | 9.57% |
| O=C(NCc1ccc(Cl)cc1)C1CCN(S(=O)(=O)c2cccnc2)CC1 | -3.39% |
| O=C(Cn1nc(Cc2ccncc2)c2ccccc2c1=O)N1CCc2ccccc2C1 | -14.3% |
| CCCCN(C)CCNC(=O)c1cc2c(=O)[nH]c3ccccc3c2n1C | 6.51% |
| CCNC(=O)CSc1nc2cc([N+](=O)[O-])ccc2n1-c1cccc(C(F)(F)F)c1 | -10.7% |
| Cc1cc(C(F)F)n2nc(C(=O)O)nc2n1 | 11.7% |
| CCOc1ccccc1NC(=O)C1Cc2ccccc2CN1S(C)(=O)=O (stereo not shown) | 13.6% |
| Cn1cc(Br)c(C(=O)NN2C(=O)C3C(C2=O)C2C=CC3C23CC3)n1 (stereo not shown) | 26.5% |
| CC(C)O.COc1cc(/C=N/NC(=O)c2ccc(O)cc2)ccc1Oc1ccc([N+](=O)[O-])cn1 | 6.25% |
| Cl.OC(COCCOc1ccc(Br)cc1)CN1CCCCC1 (stereo not shown) | -10.6% |
| CC1CCN(Cc2cc(=O)oc3ccc(C(C)C)cc23)CC1.Cl | 15.9% |
| CCCOc1ccc(N2C(=O)CC(N(CCc3ccc(OC)cc3)C(=O)/C=C/C(=O)O)C2=O)cc1 (stereo not shown) | 11.2% |
| COc1ccccc1C(=O)NCC(c1ccco1)N1CCc2ccccc21 (stereo not shown) | 6.35% |
| CCOc1ccc(/C=N/OCC(=O)Nc2ccc3c(c2)OCO3)cc1 | -5.35% |
| O=c1c2cc([N+](=O)[O-])ccc2nc2n1CCC2 | 2.27% |
| Cc1cnc(C(=O)OCC(=O)NCCc2ccccc2)cn1 | -13.3% |
| Cc1cc(C)c(NC(=O)CNC(=O)COC(=O)CN2C(=O)NC3(CCCC3)C2=O)c(C)c1 | 15.2% |
| Cc1ccc(OCCCNCCO)c(Br)c1.O=C(O)C(=O)O | 5.93% |
| O=C(CNC(=O)c1ccc2c(c1)OCO2)N/N=C/c1cc(Br)ccc1O | 14.6% |
| CC(=O)Nc1ccc(S(=O)(=O)Nc2ccc(=O)n(Cc3ccc(Cl)c(Cl)c3)c2)cc1 | -12.7% |
| Cc1cc(C=O)c(C)n1-c1ccc(NC2CCCCC2)c([N+](=O)[O-])c1 | 21.1% |

| Compound | hERG current change (%, negative = inhibition) at 1uM |
| --- | --- |
| Cc1cccc2nc3c(nc12)-c1ccccc1C3=O | 12.1% |
| Cc1ccc(N(Cc2ccccc2)C(=O)c2cc(S(=O)(=O)N3CCOCC3)ccc2N2CCCC2)cc1 | 8.05% |
| CCCOc1ccc(N/C=C/C(=O)c2ccc(OC)c(OC)c2)cc1 | 3.29% |
| CCOC(=O)C1CCN(C(=O)c2ccc(Cl)c(S(=O)(=O)N3CCCC3)c2)CC1 | -5.94% |
| CC(C)CCCN1C(Nc2ccccc2)=NC[C@@H]1C | -0.21% |
| CCOc1cccc(C(=O)Nc2cc(-c3nn4c(C)nnc4s3)ccc2C)c1 | -7.45% |
| N#Cc1ccsc1NC(=O)CN1CCCCC1 | 7.65% |
| COc1cc(O)c2c(c1)OC(c1ccc(O)cc1)CC2=O (stereo not shown) | -4.82% |
| CCOc1ccc(OCCOCCN2CCCC2)cc1.O=C(O)C(=O)O | 9.53% |
| O=C(CN1C(=O)S/C(=C/c2ccncc2)C1=O)N1CCOCC1 | -6.01% |
| C=Cc1ccc(Cn2nc(-c3ccccc3)ccc2=O)cc1 | 11% |
| CC(C)CC(=O)Nc1cc2c3c(c1)C(C)C(=O)N3CCC2 (stereo not shown) | 24.5% |
| CCOc1cc(CNc2cccc3ccccc23)cc(Br)c1OCC(=O)NC(C)(C)C | 3.55% |
| COC(=O)c1sccc1NC(=O)c1ccc(OC)cc1 | 13.2% |
| O=C(CSC1CC(=O)N(CC(c2ccccc2)c2ccccc2)C1=O)Nc1ccc(Cl)cc1 (stereo not shown) | 7.24% |
| COc1ccc(CCC(=O)NNC(=O)c2ccc(F)cc2)cc1 | 11% |
| COc1ccc(NC(=O)CC2C(=O)N(c3cccc(OC)c3)C(=O)N2C2CCCCC2)cc1 (stereo not shown) | 14.6% |
| O=C(NC(=S)Nc1cccc(O)c1)c1cncc(Br)c1 | 10.9% |
| O=C(COc1ccc2ccccc2c1)NNC(=O)Cc1cccc2ccccc12 | 0.715% |
| O=C(NCCc1ccc(Cl)cc1)c1ccc2c(c1)OCO2 | -0.947% |
| CCOc1ccc(NC(=O)CSc2nnc(Cn3cnc([N+](=O)[O-])n3)n2CC)cc1 | 8.08% |
| CN(C)S(=O)(=O)c1cccc(NC(=O)Cc2ccc(Cl)cc2)c1 | 0.235% |

| Compound | hERG current change (%, negative = inhibition) at 1uM |
| --- | --- |
| O=C(CNc1cccc([N+](=O)[O-])c1)N/N=C/c1ccc([N+](=O)[O-])o1 | 2.54% |
| COc1ccc(OCCCC(=O)ON=C(N)c2ccccc2Cl)cc1 | 8.19% |
| CN(C)CCCn1cnc2c1c(=O)[nH]c(=O)n2Cc1ccccc1.Cl | 11.5% |
| O=C(O)CC1(CC(=O)Nc2ccc(F)c(Cl)c2)CCCCC1 | 9.41% |
| CC(OC(=O)c1ccc(NC(=O)CC#N)cc1)C(=O)NCCC1=CCCCC1 (stereo not shown) | 13% |
| COc1ccc(S(=O)(=O)Nc2ccccc2C(=O)NCc2cccnc2)cc1 | 12.1% |
| CCc1ccc(N(C(=O)CNC(=O)c2ccco2)C(C(=O)NC2CCCC2)c2cccnc2)cc1 (stereo not shown) | 14.4% |
| O=C(c1ccc(Cl)c(Cl)c1)N1CCN(c2ccccn2)CC1 | 1.45% |
| O=C(O)c1nn(-c2ccccc2)nc1-c1nn(-c2ccccc2)nc1C(=O)O | 12.5% |
| COCCNC(=O)c1onc(CSc2cccc(OC)c2)c1C(=O)NCCOC | 2.62% |
| COc1cc(OC)cc(C(=O)NNC(=O)Cc2ccc(OC)c(S(=O)(=O)N3CCOCC3)c2)c1 | 7.41% |
| COCc1nnc(NC(=O)c2ccc(S(=O)(=O)N(C)C3CCCCC3)cc2)o1 | 6.49% |
| CCOc1cc(N2CCOCC2)c(OCC)cc1NC(=O)c1ccc(OC)cc1 | 9.63% |
| Cc1ccnn1CC(=O)N/N=C/c1c[nH]c2ccccc12 | 8.86% |
| Nc1ccc2nc3c(=O)[nH]c(=S)[nH]c3nc2c1 | 14.7% |
| CCOP(=O)(OCC)C(NC(=O)C(F)(F)F)c1ccccc1 (stereo not shown) | 3.32% |
| COc1ccc(C(=O)NCCS(=O)(=O)N2CCc3ccccc3C2)cc1OC | 9.04% |
| COC(=O)C1C2C=CC3(CN(Cc4cccs4)C(=O)C13)O2 (stereo not shown) | 4.13% |
| O=c1cc(-c2ccccc2)oc2cc(OCc3ccccc3)cc(O)c12 | 15.5% |
| CCCc1cc(C(N)=O)c(NC(=O)C2CCCO2)s1 (stereo not shown) | -12% |
| CC(=O)Oc1ccccc1C1C[C@]2(C)CC(=O)NC2N1C(C)=O (stereo partly shown) | 15.9% |
| O=C(O)c1ccccc1-c1ccc(/C=C2\SC(=O)N(c3ccccc3)C2=O)o1 | 11.3% |

| Compound | hERG current change (%, negative = inhibition) at 1uM |
| --- | --- |
| CCc1ccc(CN2CCC(n3nccc3NC(=O)c3ccccc3)CC2)o1 | -6.11% |
| Cc1ccc(C(=O)CCC(=O)N2CCC(C(N)=O)CC2)cc1 | 10.5% |
| CCc1nnc(NC(=O)CSc2nnc(CSc3nc(C)cc(C)n3)o2)s1 | 10.6% |
| CN1C(N)=NC(=O)/C1=C/c1ccc(F)cc1 | 13.8% |
| COC(=O)Cc1ccc(NC(=O)c2ccc3c(c2)C(=O)N(CC2CCCO2)C3=O)cc1 (stereo not shown) | -0.497% |
| C=CCn1c(NC(=O)c2ccc(C)cc2)c(C#N)sc1=N | 7.94% |
| CCCCC(=O)NC(=S)Nc1c(C)cc(Br)cc1C | -6.59% |
| O=C(CCCC(=O)c1ccccc1)Nc1ccc(O)cc1 | 7.8% |
| CCN(CC)c1ccc(NC(=O)CN2CCN(CC(=O)Nc3ccccc3F)CC2)cc1 | -13% |
| CC(C)c1cc(NCCOCCO)n2c(nc3ccccc32)c1C#N | -0.784% |
| CCSc1nc(C)cc(Oc2ccc(=O)n(C)n2)n1 | 9.12% |
| O=C(Cc1ccccc1)c1c[nH]c(C(=O)NCCCn2ccnc2)c1 | -1.44% |
| Cc1ccc(S(=O)(=O)CC(=O)N2CCN(c3ccccc3F)CC2)cc1 | -5.25% |
| CCOC(=O)N1CCN(S(=O)(=O)c2ccc(F)c(C(=O)Nc3cc(C)cc(C)c3)c2)CC1 | 5.99% |
| O=C(NCC1CCCO1)c1ccc(COc2ccc(Br)cc2)cc1 (stereo not shown) | -5.4% |
| CCN(CC)CC#CC(C)(C)OC(C)=O | 4.46% |
| COc1cc2c(C(=O)N3CCN(C)CC3)c(C)n(-c3ccccc3)c2cc1Br | 8.85% |
| Cc1ccc(S(C)(=O)=O)cc1C(=O)N1CC(C(N)=O)Oc2ccccc21 (stereo not shown) | 14% |
| Cc1nn(CC(=O)c2ccc(Br)s2)c(C)c1[N+](=O)[O-] | 6.75% |
| COc1ccc(OC)c(C2C3CN(C(C)C)CC=C3C(C#N)=C(N)C2(C#N)C#N)c1 (stereo not shown) | 5.92% |
| COc1ccc(OC)c(C2=Nn3c(nnc3-c3cc(OC)c(OC)c(OC)c3)SC2)c1 | -3.48% |
| CC(C)CNC(=O)NC(=O)COc1ncnc2sccc12 | 11% |
